# In PubChem BioAssay (NCATS):
# “And” between values parts separate entries of the source, which are not always exact repeats. Identical values can stand only once. Inconclusive results, whose numbers are uncertain, are shown with a selection of clear calls. For some assays here: A potency beside an inconclusive call is a rough fit, not a confirmed value. For some assays here: A note “side channel” means that the fit belongs to a control or component signal, not to the main read-out. Some compounds were tested as several samples or in several runs, with calls that do not always agree. The source made the active and inactive calls. Unless noted, the call rests on the fitted dose curve; in most records, active means well fitted curve in the direction sought with a large enough effect; inconclusive means small, poorly fitted or top-dose-only effect, or another doubt; inactive means no such curve, though single readings can be large; an effect the other way counts as inactive or inconclusive.
# What was measured:
# [1] = Cell Viability - Jurkat (AID 426;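 active means dose-dependent loss of cell ATP signal giving a full or clear fitted curve, ranked by lower potency value; inconclusive means weak partial curve or response only at the top dose; inactive means no loss of viability signal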;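 further: potency means the concentration at half of the fitted maximal effect; cells exposed to compound for 40 hours at 37 °C before ATP read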); details: qHTS
# Outline: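 Cells of the human T-cell leukemia line Jurkat (E6-1) are seeded at 5000 per well, treated with compound across a concentration range for 40 hours at 37 °C, then lysed with CellTiter-Glo; luminescence reports ATP.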
# [2] = Cell Viability - MRC5 (AID 434; calls by dose curve;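 further: potency means the concentration at half of the fitted maximal effect; potency reflects cytotoxicity seen as loss of intracellular ATP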); details: MRC5 lung fibroblast viability, qHTS
# Outline: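 ATP luminescence read-out (CellTiter-Glo, 20 min RT) after 40 hr, 37 °C compound exposure of 1500 MRC5 cells/well. Data normalized to DMSO (basal) and 100 uM tamoxifen (100% inhibition); AC50 from standard Hill equation.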
# [3] = Cell Viability - LYMP1-002 - Assay at 16 hr (AID 948); details: LYMP1-002 lymphoblastoid cell viability; further: potency means the concentration at half of the fitted maximal effect
# Outline: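 Seed 2500 LYMP1-002 cells per well in complete medium and hold 5 hr at 37 C. Add compound across a concentration series and incubate 16 hr at 37 C. Add CellTiter-Glo, wait 30 min at room temperature, read luminescence.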
# [4] = MultiTox-Fluor Cytotoxicity Assay - LYMP1-003 - Dead Cells (AID 961); further: potency means the concentration at half of the fitted maximal effect; nearly all actives have a fitted effect of over 70% in size
# Outline: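 Acute toxicity is scored as increased dead-cell protease activity in human lymphoblastoid LYMP1-003 cells after 16 h compound exposure in complete culture medium. Activity is normalized to DMSO basal and 15 uM tetraoctylammonium bromide as full response.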
# [5] = Cell Viability - LYMP2-025 (AID 976); details: LYMP2-025 lymphoblastoid cell viability; activity change, negative = cytotoxicity: at 92.2 µM (top of the series); further: potency means the concentration at half of the fitted maximal effect;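 on activity change, negative = cytotoxicity: plate controls were DMSO only for no effect and tetraoctylammonium bromide control for full effect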
# Outline: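 Acute cytotoxicity is scored as a concentration-dependent fall in intracellular ATP, measured by luciferase luminescence, in human lymphoblastoid LYMP2-025 cells exposed to compound for 24 hours at 37 C. AC50 values come from standard Hill fits.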
# [6] = Cell Viability - LYMP1-002 - Assay at 40 hr (AID 994); further: potency means the concentration at half of the fitted maximal effect; nearly all actives have a fitted effect of over 60% in size
# Outline: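 Cells are plated at 2500 per well and rested 5 hr at 37 C. Compounds are added and incubated 40 hr at 37 C. CellTiter-Glo reagent is added for 30 min at room temperature before luminescence is read.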
# [7] = target: Cytochrome P450 3A4 (Homo sapiens) (UniProt P08684); assay: qHTS Assay for Inhibitors and Substrates of Cytochrome P450 3A4 (AID 884); further: potency means the concentration at half of the fitted maximal effect; nearly all actives have a fitted effect of over 50% in size
# Outline: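 Luminescent readout of luciferin produced by CYP3A4 (20 nM) dealkylation of Luciferin-PPXE, 25 uM (its KM). NADPH-driven reaction ran 60 min at RT after 10 min compound preincubation; data scaled to 57 uM ketoconazole as 100% inhibition.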
# [8] = Cell Viability - Mesenchymal (AID 546); details: mesenchymal cells viability, qHTS; activity change, negative = cytotoxicity: at 91.7 µM (top of the series);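 further: cells exposed to compound for 40 hours before reading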
# Outline: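 Human renal mesenchymal cells (glomerulus-derived), 1000 cells/well, 5 hr 37 °C pre-incubation; compound 40 hr, 37 °C; CellTiter-Glo, 20 min RT; luminescence; AC50 via Hill equation.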
# [9] = Cell Viability - LYMP2-019 (AID 973); further: potency means the concentration at half of the fitted maximal effect; nearly all actives have a fitted effect of over 55% in size
# Outline: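 Cytotoxicity is scored as a concentration-dependent drop in cellular ATP after cells (2500/well) receive compound for 24 hr at 37 C. Tetraoctylammonium bromide serves as positive control.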
# [10] = Cell Viability - LYMP2-008 (AID 980); further: potency means the concentration at half of the fitted maximal effect; nearly all actives have a fitted effect of over 60% in size
# Outline: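 Cells seeded at 2500/well and rested 5 hr at 37 C; compounds added over a concentration range and incubated 24 hr at 37 C; CellTiter-Glo added, 30 min at room temperature; luminescence read and AC50 fitted with Hill model.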
# [11] = qHTS Assay for Identification of Small Molecule Agonists for Hypoxia Response Element Signaling Pathway (AID 914; active means well fitted activation curve with a large enough effect in the signal ratio, with a control signal flat, not every such curve was filed as active; inconclusive means small, poorly fitted or top-dose-only effect, or effect the other way, or a change in a side signal; the % refers to the signal ratio; further: potency means the concentration at half of the fitted maximal effect; on activation: top concentration of the series differs between compounds; % of control where 0% means no effect); details: ME-180 (cervical carcinoma) HRE-bla reporter, beta-lactamase ratio, CoCl2, 17 h; activation: stronger effect = higher value
# Outline: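 Cells were plated overnight, pin-dosed with compound in a titration series, co-stimulated with EC50 CoCl2 and incubated 17 hours at 37 degrees Celsius. CCF4 substrate was then loaded, and AC50 values came from the 460nm/530nm ratio.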
# [12] = Cell Viability - LYMP2-006 (AID 978); further: nearly all actives have a fitted effect of over 60% in size; further: potency means the concentration at half of the fitted maximal effect; on activity change, negative = cytotoxicity: on the % scale 0 is the no-effect control and ±100 the full control effect
# Outline: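 Cells are seeded at 2500 per well and rested 5 hr at 37 C. Compounds are added across a concentration series for 24 hr at 37 C, after which ATP is quantified by luciferase luminescence.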
# [13] = Cell Viability - LYMP2-013 (AID 970); details: LYMP2-013 lymphoblastoid cells viability; activity change, negative = cytotoxic: at 92.2 µM (top of the series); further: nearly all actives have a fitted effect of over 55% in size; further: potency means the concentration at half of the fitted maximal effect;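 on activity change, negative = cytotoxic: 0% = DMSO only and full inhibition = tetraoctylammonium bromide control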
# Outline: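 Cytotoxicity is scored as a concentration-dependent drop in intracellular ATP in human lymphoblastoid cells after 24 hr compound exposure at 37 C. ATP is quantified by luciferase luminescence, and AC50 values come from Hill-equation modeling.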
# [14] = qHTS assay for small molecule agonists of the antioxidant response element (ARE) signaling pathway measured by Nrf2-dependant transcriptional activity - cell viability counter screen (AID 720653; active means well fitted curve in the direction sought with a large enough effect in the repeat runs; inconclusive means weak or mixed curves; inactive means no such curve, though single readings can be large; an effect the other way counts as inactive or inconclusive; further: potency means the concentration at half of the fitted maximal effect); details: ARE-bla HepG2 viability, CellTiter-Glo ATP luminescence, 16 h; max response: stronger effect = lower value
# Outline: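 ARE-bla HepG2 cells treated with compounds for 16 h at 37C; this counter screen measures viability as intracellular ATP by CellTiter-Glo luminescence after 30 min at room temperature.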
# [15] = qHTS assay for small molecule disruptors of the mitochondrial membrane potential - 5 hr assay (AID 651755; calls by dose curve; further: potency means the concentration at half of the fitted maximal effect; nearly all actives have a fitted effect of over 40% in size); details: JC-1-type ratio dye; ratio change, negative = disruption: at 92.2 µM (top of the series)
# Outline: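 Read-out: ratiometric Mito-MPS fluorescence, green monomer (ex 490/em 535) vs red mitochondrial aggregate (ex 540/em 590). HepG2 cells treated 5 hr at 37C before 30 min dye loading.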
# [16] = Cell Viability - LYMP2-023 (AID 975); further: nearly all actives have a fitted effect of over 55% in size; further: potency means the concentration at half of the fitted maximal effect;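 on activity change, negative = cytotoxicity: cellular ATP measured by luciferase luminescence as viability proxy; plate controls were DMSO only for no effect and 92 µM tetraoctylammonium bromide control for full effect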
# Outline: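 Steps: seed 2500 human lymphoblastoid cells per well, incubate 5 hr at 37 C, add compound for 24 hr at 37 C, add CellTiter-Glo, hold 30 min at room temperature, read luminescence. AC50 derived by Hill modelling.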
# [17] = Cell Viability - LYMP1-002 - Assay at 24 hr (AID 993); further: potency means the concentration at half of the fitted maximal effect
# Outline: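 Acute toxicity is measured as concentration-dependent loss of cellular ATP in a human lymphoblastoid line (Coriell LYMP1-002) after 24 h treatment in complete medium. ATP is quantified by luciferase luminescence and AC50 derived by Hill modelling.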
# [18] = qHTS assay for cell viability of the p53RE-bla HCT-116 cell line (AID 743292); further: nearly all actives have a fitted effect of over 55% in size; further: potency means the concentration at half of the fitted maximal effect; on activity change, negative = cytotoxicity: on the % scale 0 is the no-effect control and ±100 the full control effect
# Outline: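 Quantitative high-throughput format: compounds in DMSO were pinned onto p53RE-bla HCT-116 cells (4,000/well) and incubated 16 h at 37 C. Total intracellular ATP, read by CellTiter-Glo luminescence, reflects viable cell number.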
# [19] = qHTS assay for small molecule activators of the nuclear factor-kappa B (NF-kB) signaling pathway (AID 651749; active means well fitted activation curve with a large enough effect in the signal ratio; inconclusive means small, poorly fitted or top-dose-only effect, or a change in a side signal; the % refers to the signal ratio; further: potency means the concentration at half of the fitted maximal effect); details: NF-kB-bla ME-180 cells, beta-lactamase FRET ratio, 16 h; activation: stronger effect = higher value
# Outline: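 In this qHTS format, compounds acting as activators increase NF-kB-driven beta-lactamase in ME-180 cells, measured as disrupted FRET after 16 hr exposure at 37C and 5% CO2.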
# [20] = Cellular Toxicity (caspase-3) Hek293 (AID 664); details: HEK293 caspase-3 activation, DMSO = 0%, 100 µM tamoxifen = 100%; at 92.2 µM (top of the series);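 further: cells exposed to compound for 16 h at 37 °C before readout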
# Outline: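 qHTS, HEK293 (human embryonic kidney), 16 h cpd exposure in complete medium. Caspase-3/7 activation = luminescence increase; normalized to DMSO/100 uM tamoxifen; Hill-fit AC50.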
# Tags describe the fitted curve by direction and shape or compound fluorescence and quenching.
# Chain of UniProt P08684 (P08684 whole entry, looked up): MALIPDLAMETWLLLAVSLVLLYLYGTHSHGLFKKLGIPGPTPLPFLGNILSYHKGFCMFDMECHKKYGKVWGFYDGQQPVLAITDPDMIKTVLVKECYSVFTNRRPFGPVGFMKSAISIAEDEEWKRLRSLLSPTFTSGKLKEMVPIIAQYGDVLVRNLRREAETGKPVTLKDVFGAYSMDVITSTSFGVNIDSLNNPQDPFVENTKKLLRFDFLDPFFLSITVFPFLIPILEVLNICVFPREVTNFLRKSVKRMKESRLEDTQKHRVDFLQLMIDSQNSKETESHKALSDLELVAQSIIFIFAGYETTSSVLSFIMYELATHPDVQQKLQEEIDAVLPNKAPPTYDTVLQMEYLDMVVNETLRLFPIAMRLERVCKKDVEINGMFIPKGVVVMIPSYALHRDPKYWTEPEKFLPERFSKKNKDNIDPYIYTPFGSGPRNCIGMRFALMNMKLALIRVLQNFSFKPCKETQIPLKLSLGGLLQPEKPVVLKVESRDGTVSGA
smiles,measurement,setting,value
Nc1ccc(-c2ccc(N)c(Cl)c2)cc1Cl,Potency,[1],active: 19 µM
same,Potency,[2],inconclusive: 44.5 µM [partial curve]
same,Potency,[3],"inconclusive: 31.6 µM [cytotoxic, full curve, poor fit]"
same,Potency,[4],"inconclusive: 31.6 µM [cytotoxic, full curve]"
same,Potency,[5],inactive
same,Potency,[6],"inconclusive: 12.6 µM [cytotoxic, full curve]"
C[N+]1(C)CCO[C@@](O)(c2ccc(-c3ccc([C@]4(O)C[N+](C)(C)CCO4)cc3)cc2)C1,Potency,[7],"inconclusive: 0.126 µM [inhibitor, full curve]"
O=[N+]([O-])C(Br)Br,Potency,[2],inconclusive: 44.1 µM [partial curve]
same,"activity change, negative = cytotoxicity",[8],inconclusive: -101%
same,Potency,[9],active: 10 µM
same,Potency,[10],active: 12.6 µM
NC1CCC(CC2CCC(N)CC2)CC1 (centres undefined),Potency,[1],inactive: > 92 µM
Cc1cc[c]([Sb]2[O][C@H]([C@H](O)[C@H](O)C(=O)O)[C@@H](CO)[O]2)cc1,activation,[11],inconclusive: 11.6%
C[n+]1c(/C=C\c2ccc(O)c3ncccc23)[se]c2ccccc21,Potency,[7],"inconclusive: 3.98 µM [inhibitor, single point]"
same,Potency,[11],"inconclusive: 1 µM [cytotoxic, side channel, single point]"
O=C(O)COc1ccc(Cl)cc1Cl,Potency,[12],inactive
Oc1cc(Cl)c(Cl)c(Cl)c1Cl,Potency,[2],inconclusive: 50.7 µM [single point]
same,Potency,[13],"inconclusive: 79.4 µM [cytotoxic, single point]"
same,Potency,[14],"inconclusive: 39.8 µM [cytotoxic, partial curve]"
C[C@H]1CCCC(=O)CCC/C=C/c2cc(O)cc(O)c2C(=O)O1,"activity change, negative = cytotoxicity",[8],inconclusive: -37.5% and inconclusive: -33.7%
same,Potency,[10],"inconclusive: 50.1 µM [cytotoxic, single point]"
same,Potency,[6],"inconclusive: 39.8 µM [cytotoxic, partial curve] and inconclusive: 50.1 µM [cytotoxic, partial curve]"
same,Potency,[15],active: 33.5 µM and active: 37.6 µM
same,Potency,[14],"inconclusive: 0.141 µM [cytotoxic, full curve, poor fit]"
C=CCc1ccc(OC)cc1,Potency,[16],inactive
O=C1C2(Cl)C3(Cl)C4(Cl)C(Cl)(Cl)C5(Cl)C3(Cl)C1(Cl)C5(Cl)C24Cl (centres undefined),Potency,[13],"inconclusive: 79.4 µM [cytotoxic, partial curve, poor fit] and inconclusive: 79.4 µM [cytotoxic, single point]"
same,Potency,[5],"inconclusive: 79.4 µM [cytotoxic, single point] and inconclusive: 50.1 µM [cytotoxic, partial curve, poor fit]"
same,Potency,[17],active: 31.6 µM and active: 79.4 µM
same,Potency,[15],active: 4.22 µM and active: 9.44 µM
same,Potency,[18],"active: 70.8 µM and inconclusive: 70.8 µM [cytotoxic, single point] and inactive"
CN(C)c1ccc(N)cc1,Potency,[2],inconclusive: 82.1 µM [single point]
same,Potency,[3],"inconclusive: 50.1 µM [cytotoxic, partial curve]"
same,Potency,[4],"inconclusive: 50.1 µM [cytotoxic, single point]"
same,Potency,[13],active: 79.4 µM
same,Potency,[16],"inconclusive: 79.4 µM [cytotoxic, single point]"
same,Potency,[5],"inconclusive: 50.1 µM [cytotoxic, partial curve, poor fit]"
same,Potency,[17],"inconclusive: 50.1 µM [cytotoxic, partial curve, poor fit]"
same,Potency,[6],"inconclusive: 50.1 µM [cytotoxic, partial curve]"
same,Potency,[19],"inconclusive: 44.7 µM [side channel, falling, partial curve, poor fit]"
Nc1cc(Cl)ccc1O,Potency,[1],inconclusive: 307 µM [partial curve]
same,Potency,[4],"inconclusive: 6.31 µM [cytotoxic, full curve]"
same,Potency,[6],"inconclusive: 15.8 µM [cytotoxic, partial curve]"
ClC1=C(Cl)C2(Cl)C3C4CC(C5OC45)C3C1(Cl)C2(Cl)Cl (centres undefined),"activity change, negative = cytotoxicity",[8],inconclusive: 32.5%
same,Potency,[4],active: 10 µM
same,Potency,[9],"inconclusive: 39.8 µM [cytotoxic, partial curve, poor fit]"
same,Potency,[12],active: 31.6 µM
same,Potency,[10],"inconclusive: 39.8 µM [cytotoxic, partial curve]"
same,Potency,[17],active: 12.6 µM
Nc1c(Br)cc([N+](=O)[O-])cc1[N+](=O)[O-],Potency,[15],active: 26.6 µM
CC(C)(c1ccc(OCC2CO2)cc1)c1ccc(OCC2CO2)cc1 (centres undefined),Potency,[1],inconclusive: 66.9 µM [partial curve]
same,Potency,[14],"inconclusive: 100 µM [cytotoxic, partial curve, poor fit]"
same,Potency,[18],"inconclusive: 50.1 µM [cytotoxic, single point]"
O=S1OCC2C(CO1)C1(Cl)C(Cl)=C(Cl)C2(Cl)C1(Cl)Cl (centres undefined),caspase-3 activation,[20],inconclusive: 77.2%
same,Potency,[3],"inconclusive: 39.8 µM [cytotoxic, partial curve]"
same,Potency,[4],"inconclusive: 31.6 µM [cytotoxic, full curve]"
same,"activity change, negative = cytotoxic",[13],inconclusive: -41.7% [cytotoxic]
same,Potency,[12],"inconclusive: 50.1 µM [cytotoxic, partial curve, poor fit]"
same,Potency,[17],"inconclusive: 39.8 µM [cytotoxic, partial curve]"
same,Potency,[6],"inconclusive: 39.8 µM [cytotoxic, partial curve]"
